Test results as given in patent publication US12042564B2, “Therapeutic solid dosage forms” (CYBIN UK LTD, priority 2020, dated 2024).

Test: Solubility of DMT fumarate at different pH values in Britton-Robinson buffer
Details: B-R buffer

## CN(C)CCc1c[nH]c2ccccc12.O=C(O)/C=C/C(=O)O [SPL026, N,N-dimethyltryptamine (DMT) fumarate salt]
pH 4, 5, 6 and 7
  Solubility of a concentration of 20 mg/ml, appearance: clear and colourless
pH 8
  Solubility of a concentration of 20 mg/ml, appearance: hazy
pH 9 and pH 10
  Solubility of a concentration of 20 mg/ml, appearance: contained a precipitate
